From PubChem BioAssay (Tox21)
“And” between values parts separate entries of the source, which are not always exact repeats. Equal entries are not always repeated. The inconclusive results got no clear call from the source; some entries with a clear call stand among them for comparison. Potencies of inconclusive entries are doubtful fits and often do not repeat. The source made the active and inactive calls. Calls come from the whole dose curve; as a rule, active = well fitted activation curve with a large enough effect in the repeat runs; inconclusive = weak or mixed curves, or effect the other way; inactive = no such curve, though single readings can be large or run the other way.

Target: Estrogen receptor (Homo sapiens) (UniProt P03372)
Assay: qHTS assay to identify small molecule agonists of the estrogen receptor alpha (ER-alpha) signaling pathway using the BG1 cell line (AID 743079); note: nearly all actives have a fitted effect of over 20% in size
Conditions: BG1Luc4E2 cells, ERE-luciferase agonist, 22 h; activation: at 70.3 µM (top of the series) unless noted
% is set by controls: 0 for no effect and ±100 for the full control effect; potency is the fitted concentration of half-maximal effect; tags give direction and shape of the fitted curve.

Chain of UniProt P03372 (P03372 whole entry, looked up): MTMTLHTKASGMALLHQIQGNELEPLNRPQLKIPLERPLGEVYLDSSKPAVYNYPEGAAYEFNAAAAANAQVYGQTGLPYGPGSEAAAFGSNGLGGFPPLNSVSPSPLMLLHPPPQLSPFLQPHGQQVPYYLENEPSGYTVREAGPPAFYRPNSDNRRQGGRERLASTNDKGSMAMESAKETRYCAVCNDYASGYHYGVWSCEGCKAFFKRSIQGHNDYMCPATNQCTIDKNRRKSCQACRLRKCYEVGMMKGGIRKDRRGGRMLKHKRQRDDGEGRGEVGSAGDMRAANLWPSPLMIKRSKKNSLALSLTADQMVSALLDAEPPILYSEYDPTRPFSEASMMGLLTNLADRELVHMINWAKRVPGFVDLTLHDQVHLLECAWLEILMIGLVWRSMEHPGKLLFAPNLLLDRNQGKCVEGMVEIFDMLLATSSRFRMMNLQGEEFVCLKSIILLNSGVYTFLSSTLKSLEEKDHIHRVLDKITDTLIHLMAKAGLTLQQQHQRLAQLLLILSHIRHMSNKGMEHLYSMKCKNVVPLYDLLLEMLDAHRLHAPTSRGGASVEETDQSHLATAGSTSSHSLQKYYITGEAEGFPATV

Q: Which activation does the source give for `CC(C)(C)OOC(C)(C)C` here?
A: inconclusive: -17.5% [phenotype inactive]

Q: `OCC1CO1` (centres undefined) was tested. Which activation did it give?
A: inconclusive: 1.26% [phenotype inactive] [at 95 µM]

Q: With `CCCCCCCCC(=O)NCc1ccc(O)c(OC)c1` as the compound, how does the Potency read?
A: inconclusive: 38.6 µM [inhibitor, partial curve]

Q: Which Potency does the source give for `C[C@]12CCC(=O)C(O)=C1CC[C@@H]1[C@@H]2CC[C@]2(C)C(=O)CC[C@@H]12` here?
A: active: 11.9 µM and active: 5.96 µM and active: 5.45 µM

Q: How did the activation turn out when `Cc1ccc(N)cc1Cl` was run?
A: inconclusive: 12.4% [phenotype inactive] [at 95 µM]

Q: `CC[C@H]1C[C@H]2[C@@H]3CCC4=CC(=O)CC[C@@H]4[C@H]3CC[C@]2(C)[C@H]1O` was tested. Which Potency did it give?
A: active: 10.6 µM

Q: How did the Potency turn out when `CSC(=O)c1c(C(F)F)nc(C(F)(F)F)c(C(=O)SC)c1CC(C)C` was run?
A: inactive

Q: For `CC(O)(CS(=O)(=O)c1ccc(F)cc1)C(=O)Nc1ccc(C#N)c(C(F)(F)F)c1` (centres undefined), which Potency is on record?
A: inconclusive: 40 µM [inhibitor, single point]

Q: For `Cc1c([N+](=O)[O-])cc2c(c1[N+](=O)[O-])C(C)(C)CC2(C)C`, which activation is on record?
A: inconclusive: -9.57% [phenotype inactive]
